Test results taken from PubChem BioAssay AID1159614 (National Center for Advancing Translational Sciences (NCATS), 2016).
The campaign covered roughly 45,000 compounds. About 65 (0.1%) were called active. The call rests on the fitted dose curve; in most records, active means well fitted activation curve with a large enough effect; inconclusive means small, poorly fitted or top-dose-only effect; inactive means no such curve, though single readings can be large or run the other way. The list shows a part of the results.

biological target: Galactocerebrosidase (Homo sapiens) (UniProt P54803); test: A Novel Cell-Based Assay to Identify Small Molecules for B -Galactocerebrosidase; details: 145M-Twi-hGALC-G270D cells, HMU-beta-Gal fluorescence, 48 h; series mostly up to 57.5 µM; activation: at the top concentration; further: 0% is about no effect; nearly all actives have a fitted effect of over 65% in size
Summary of the method: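 qHTS, 1536-well; 145M-Twi-hGALC-G270D cells (WT line also made) in DMEM/F12 + 10% FBS; compound incubation on live cells; HMU-β-gal 0.1 mM final, pH 5.2, NaTC; carbonate stop; fluorescence increase = enhanced residual activity.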

activation, inactive:
CC(C)(C)c1ccc(-c2nc(SCCCOc3ccccc3)n3[nH]c(=O)cc3n2)cc1 -5.22%
Cc1ccc2c(c1)-c1c(cnc3cc(-c4ccccc4)nn13)CO2 -9.59%
CCCCc1ccc(NC(=O)c2ccc(=O)n(Cc3cccc(C)c3)c2)cc1 -36.9%
CN(C)CCNC(=O)c1ccc2c(=O)n3c(nc2c1)CCCCC3 -6.05%
COc1ccc(-c2nc(C)c(CCNS(=O)(=O)c3cc(C)c(C)cc3C)s2)cc1 -20.5%
O=C(NCCc1ccccc1)c1nnc(Cc2cccc(F)c2)o1 -16.3%
CCOC(=O)c1cccnc1SCC(=O)Nc1ccc(C)cc1C -9%
CCCCN(CCCC)CCNC(=O)c1cn(CC)c2ccc(S(=O)(=O)N(C)C3CCCCC3)cc2c1=O -23.4%
COc1ccc(Cl)cc1NS(=O)(=O)c1ccc2c(c1)NC(=O)CC(=O)N2 -7.61%
CCOc1ccc(NC(=O)Cn2c(=O)n(-c3cccc(OC)c3)c(=O)c3c4c(sc32)CCCC4)cc1 -3.39%
CCc1ccc(NC(=O)c2ccc3[nH]c(C)c(C)c3c2)cc1 0.763%
CCN(Cc1ccccc1)C(=O)CN(c1ccc(OC)cc1)S(=O)(=O)c1c(C)nn(C)c1C 1.04%
Cc1ccc(C)c(Cn2cc(S(=O)(=O)c3ccc(Cl)cc3)c(=O)c3cc(F)ccc32)c1 26.1%
O=C(CCS(=O)(=O)c1cccs1)Nc1ccc(C(=O)Nc2ccccc2F)cc1 3.6%
CCSc1ncc(Cl)c(C(=O)Nc2ccc(S(=O)(=O)N3CCCCC3)cc2)n1 -21.9%
Cc1ccccc1NC(=O)CSc1nc2c(c(=O)n(C)c(=O)n2C)n1Cc1ccccc1F -6.03%
Cc1cc2c(cc1S(=O)(=O)N1CCCCC1)OCC(=O)N2 7.17%
CCOCCCNc1ncnc2c1cnn2-c1ccc(C)c(C)c1 -13.2%
COCCNC(=O)Cn1c(=O)n(CCCCCC(=O)NCc2ccc3c(c2)OCO3)c(=O)c2sccc21 2.45%
Cc1ccc(-c2c(C)n3c4c(=O)n(C)c(=O)n(C)c4nc3n2CCO)cc1 -13.1%
CCOC(=O)C1CCN(C(=O)Cn2c(=O)oc3cc(S(=O)(=O)N4CCC(C)CC4)ccc32)CC1 -8.77%
CC(=O)N1CCc2c(sc3c2c(=O)n(CCc2ccccc2)c(=O)n3Cc2ccc(Cl)cc2)C1 -22.7%
CC(C)(C)c1ccc(S(=O)(=O)N2CCN(Cc3noc(CCC(=O)N4CCCCC4)n3)CC2)cc1 -1.04%
CN1[C@@H]2CC[C@H]1CC(OC(=O)C(O)c1ccccc1)C2 (stereo partly drawn) -8.81%
O=C(CN1C(=O)CCc2cc(S(=O)(=O)N3CCOCC3)ccc21)NCc1ccccc1 1.23%
COc1ccc(-c2nc(CSc3nncn4c3cc3sccc34)c(C)o2)cc1OC 7.01%
CCNc1nc(OC)nc(Oc2ccc(=O)[nH]n2)n1 -15.5%
COc1ccc(C(=O)n2nc(-c3ccco3)nc2NCc2cccs2)cc1OC -11%
CCc1ccccc1NC(=O)N(C)CCc1c(C)nn(C)c1C -17.7%
Cc1ccc(-c2nc3sc(CCNC(=O)c4ccc(C)c(C)c4)c(C)n3n2)cc1 -10.7%
Cc1cc(C)cc(S(=O)(=O)c2cn(C)c3cc(N4CCCC4)c(F)cc3c2=O)c1 -17.4%
CCCNC(=O)c1ccc2nc(CCc3ccccc3)oc2c1 -6.29%
CCc1ccc(NC(=O)CSC2=Nc3ccccc3C3=NC(CCC(=O)NCc4ccco4)C(=O)N23)cc1 (stereo not drawn) -12.9%
CCOC(=O)c1c(NC(=O)/C=C/c2ccc(OCC)cc2)sc(C)c1C -7.71%
COC(=O)C(NC(=O)CC(C)C)(Nc1nc2c(s1)CCCC2)C(F)(F)F (stereo not drawn) -13%
Cc1cc(C)c(NC(=O)Cn2c(=O)n(CC(=O)NCc3ccccc3Cl)c(=O)c3sccc32)c(C)c1 -13.7%
CC(=O)c1cc2c(cc1N/C(=N/S(=O)(=O)c1ccc(C)cc1)c1ccccc1)OCO2 -15.1%
COC(=O)c1ccc(NC(=O)CCS(=O)(=O)c2ccc(Br)cc2)cc1 -8.65%
CCC(=O)N1CCc2cc(Br)cc(S(=O)(=O)N3CCC(C(=O)Nc4ccc(OC)cc4)CC3)c21 -21.5%
COc1ccc(C(=O)NC2(C(F)(F)F)C(=O)NC(C)=C2C#N)cc1OC (stereo not drawn) -7.72%
COc1ccc(-c2cc(C(=O)O)n(Cc3ccccc3)n2)cc1 0.355%
O=C(CSc1nc2ccccc2nc1Cc1ccccc1)NCc1ccccc1Cl -12.6%
COc1ccc(NC(=O)CSc2nc(-c3cccs3)cc(C(F)(F)F)n2)cc1OC -19.9%
CCCCOc1ccc(C(=O)NCCS(=O)(=O)N2CCN(c3ccc(F)cc3)CC2)cc1 -11.7%
CCc1cnc2c(c1SCC(=O)N1CCCCC1)c(=O)n(C)c(=O)n2C -14.8%
CCOc1ccc(CNCc2c(C(=O)O)n(Cc3ccccc3F)c3cc(OC)ccc23)cc1 -16.6%
Cc1ccc(S(=O)(=O)N(CC(O)Cn2c3ccccc3c3ccccc32)c2cccc(C(N)=O)c2)cc1 (stereo not drawn) -0.253%
Cc1ccc(C)c(NC(=O)CN2C(=O)CCc3ccccc32)c1 -33.1%
CCCCN(CC)CCCNC(=O)c1sc2nc(C)cc(C)c2c1-n1cccc1 0.756%
Cc1cccc(OC(C)C(=O)Nc2ncn[nH]2)c1 (stereo not drawn) -24.4%
CCc1ccc(NC(=O)c2ccc3c(O)c(S(=O)(=O)c4ccc(Cl)cc4)c(=O)[nH]c3c2)cc1 -16.3%
COc1ccc(CN(C(=O)COc2ccccc2OC)C2CCS(=O)(=O)C2)cc1 (stereo not drawn) -4.36%
Cc1cccc2nc(-c3ccco3)c(Nc3ccc4c(c3)OCO4)n12 -12.7%
CCOC(=O)C1CCCN(S(=O)(=O)c2ccc(F)c(C(=O)Nc3ccc(F)c(F)c3)c2)C1 (stereo not drawn) -34.4%
CCN(CC)c1cc(C)c2cc(NC(=O)c3cccc(OC)c3)ccc2n1 -8.8%
Cc1ccc(-n2nnnc2CNC(=O)C(C)(C)C)cc1C -16.3%
Cc1nc(SC(C)C(=O)Nc2ccccc2C)cc(-c2ccccc2)n1 (stereo not drawn) -4.77%
Cc1ccccc1CNC(=O)c1cnc2sc(N3CCOCC3)nn2c1=O -9.65%
Cc1ccc(-c2nc3c4ccccc4n(CC(=O)N4CCN(c5ccccc5F)CC4)c(=O)n3n2)cc1 -23.4%
Cc1ccc(NC(=O)CN(C)S(=O)(=O)c2ccc3c(c2)n(C)c(=O)c(=O)n3C)cc1C -9.64%
CCn1c2ccccc2c2nnc(SCC(=O)O)nc21 -16.6%
CCOc1ccc(CCNC(=O)Cn2nc(C)n3c(cc4occc43)c2=O)cc1OCC -12.3%
Cc1ccccc1C(=O)c1cccn1CC(=O)NCc1ccccc1 -5.7%
CC(C)Oc1ccc(CNC(=O)c2cc3ccccn3n2)cc1 -2.06%
COc1ccc(CNC(=O)CSc2nc(-c3ccc(OC)cc3)cc(C(F)(F)F)n2)cc1 -6.47%
CCOC(=O)c1ccccc1O -15.9%
Cc1ccc(CCNC(=O)CCCn2nc(C)c3c(C)n(-c4ccccc4)nc3c2=O)cc1 -11.1%
COc1cccc(-c2cc(C(=O)Nc3cc(Cl)ccc3O)on2)c1 -8.04%
Cc1ccc(CN2CCSc3ccc(C(=O)N4CCN(c5ccccc5)CC4)cc32)cc1 -13%
O=C(CC1N=C2c3ccccc3N=C(SCc3ccc(Cl)cc3)N2C1=O)NCc1cccs1 (stereo not drawn) -12.5%
COc1ccc(N2CCN(C(=O)C3CCN(S(=O)(=O)c4cccs4)CC3)CC2)cc1 -11.4%
Cc1ccc2c(c1)c1c(c(=O)n(-c3cccc(Cl)c3)c(=O)n1CC(=O)Nc1c(C)cccc1C)n2C -3.26%
CCOC(=O)c1ccccc1NC(=O)CSc1nc2cn(CC)nc2c(=O)n1Cc1ccc(Cl)cc1 -6.56%
Cc1ccc(/C=C/c2onc(C)c2S(=O)(=O)N2CCC(C(=O)N3CCC(N(C)C(C)C)CC3)CC2)cc1 -23.7%
Cc1ccc(-n2c(Cc3ccccc3)nnc2SCc2nc(-c3cccs3)no2)cc1 -8.85%
O=c1c2cc3c(cc2n(Cc2ccc(Cl)cc2)c(=O)n1Cc1nc(-c2ccccc2)no1)OCO3 13.4%
Cc1nc(-n2nc(C)c(Cc3ccccc3Cl)c2C)sc1C(=O)Nc1ccccc1F -16.9%
CN1C(=O)Cc2cc(S(=O)(=O)N3CCN(c4ccccc4F)CC3)ccc21 -16.2%
O=C(Nc1cccc(Cl)c1)c1cnc2sc(N3CCCC3)nn2c1=O -4.48%
COc1ccc(CNC(=O)Cc2c(C)c3cc4c(C)coc4c(C)c3oc2=O)cc1 -11.5%
Cc1ccc(-c2noc(C(C)NS(=O)(=O)c3ccc(C)cc3)n2)cc1 (stereo not drawn) 28%
Cc1ccc(C)c(CN2CCCN(Cc3ccc(F)cc3)S2(=O)=O)c1 5.93%
COc1ccccc1/C=C/c1nc2ccccc2n1C(C)C -19.9%
COc1ccccc1NC(=O)C(=O)NCC(c1ccc2c(c1)OCO2)N1CCOCC1 (stereo not drawn) -2.09%
CN1C(=O)CC[C@H]1c1cccnc1 -13.3%
COc1ccc(Cl)cc1NC(=O)Cc1ccc(NC(=O)N2CCCCc3ccccc32)cc1 -2.65%
CC(=O)c1ccc(S(=O)(=O)N2CCn3cccc3C2c2ccc(C)cc2)cc1 (stereo not drawn) -6.48%
CCOC(=O)Cn1c(=O)n(CC2CCCO2)c2nc(-c3ccc(C)cc3)nc(C(N)=O)c21 (stereo not drawn) 2.25%
Cc1ccc2nc3c(cc(C(=O)NCC4CCCO4)c(=N)n3C(C)C)c(=O)n2c1 (stereo not drawn) -21.9%
CC(C)c1ccc(C2=CC(c3ccc(C(C)C)cc3)n3nnnc3N2)cc1 (stereo not drawn) -12.1%
C/C(=N\O)[C@@H](C)NCC(C)(C)CN[C@H](C)/C(C)=N/O -13.5%
CCn1c(C)c(C2N3CC4(C)CN2CC(C)(C3)C4=O)c2ccccc21 (stereo not drawn) -9.12%
CCc1nnc(NC(=O)CSc2nccn2-c2ccc(OC)cc2)s1 -8.33%
CSc1ccc(CCNC(=O)c2cnc3c(C)cccn3c2=O)cc1 -35%
Cc1ccc(C)c(CN2C(=O)c3ccccc3S(=O)(=O)c3ccc(C(=O)N(C)C4CCCCC4)cc32)c1 -12.2%
CC(=O)c1cc2c(cc1N/C(=N/S(=O)(=O)c1ccc(Cl)cc1)c1ccc(F)cc1)OCO2 -10.4%
Cc1nc(C)c(-c2ccc(SCC(=O)Nc3ccc(Br)cc3)nn2)s1 0.546%
CC(=O)c1cccc(-n2c(=O)c3c4c(sc3n(CC(=O)c3ccccc3)c2=O)CN(C(C)=O)CC4)c1 -16.3%
